This note sets out measurements from ChEMBL document CHEMBL1201862, “PubChem BioAssay data set” (2004).

Molecules are shown by their SMILES.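 The compound was tested at five concentrations on cells cultured in 96-well plates, with a 48-hour exposure period. GI50 is the concentration that inhibits growth by half.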 Active and inactive are the calls of the source. Cut-off read from the data, not from the text of the source: active = GI50 up to about 1.1 µM and inactive = higher.

For the test, the system named is NCI-H322M. Put plainly: NCI anticancer screen, dose series, 48 h.
Regarding `O=[N+]([O-])c1cc(Cc2cc([N+](=O)[O-])c3cccnc3c2O)c(O)c2ncccc12`, the GI50 is inactive: 8.3 µM.
To `NS(=O)(=O)c1cc(C(=O)O)c(Cl)c([N+](=O)[O-])c1Cl` belongs inactive: > 100 µM; to `Cc1c[nH]c2c1C13CC1CN(C(=O)c1cc4cc(NC(=O)c5cc6ccccc6o5)ccc4[nH]1)C3=CC2=O` (stereo unspecified), active: < 0.001 µM.
Under `O=C(CCc1ccc(O)c(O)c1)NCCc1ccc(O)c(O)c1` stands inactive: > 100 µM; under `COC(=O)c1ccccc1OCc1cc(=O)oc2ccc(C)cc12`, inactive: > 100 µM; under `Cc1nc2ccccc2c(=O)n1/N=C(\N=N\c1cc(Cl)ccc1Cl)c1ccccc1`, inactive: 65 µM.
On to `CCOC(=O)C1=C(C)N(NC(N)=O)C2(N)N(NC(N)=O)C(C)=C(C(=O)OCC)C12C#N` (stereo unspecified), for which the GI50 was inactive: > 100 µM.
Regarding `O=C(NC(=S)Nc1ccc2c(c1)Sc1ccccc1O2)c1ccc([N+](=O)[O-])cc1`, the GI50 was inactive: > 100 µM.
As to `NC(Cc1ccccc1)c1nccs1` (stereo unspecified), the GI50 is inactive: > 100 µM.
Under `Cc1nc(Nc2ccc(Cl)cc2)sc1C(=O)Nc1cccc2c(=O)[nH][nH]c(=O)c12` stands inactive: > 100 µM; under `CCCCCCCCCCCCCCCCCCNc1nc(=O)n(C2CC(O)C(COP(=O)(O)OCC3OC(n4ccc(N)nc4=O)C(O)C3O)O2)cc1F` (stereo unspecified), inactive: 32.4 µM; under `CCOc1c2ccsc2c(OCC)c2ccsc12`, inactive: 4.99 µM.
For the molecule `COc1ccc(Sc2ccccc2N)cc1`, the GI50 was inactive: 50.4 µM.
Under `CN(c1ccccc1)S(=O)(=O)c1ccccc1[N+](=O)[O-]` stands inactive: > 100 µM; under `O=C(O)C1OC(Oc2cc(O)c3c(=O)cc(-c4ccc(O)cc4)oc3c2)C(O)C(O)C1O` (stereo unspecified), inactive: > 100 µM.
To `COc1cc(-c2coc3c(OC)c(OC4OC(CO)C(O)C(O)C4O)c(OC)cc3c2=O)cc(OC)c1C` (stereo unspecified) belongs inactive: 11.7 µM; to `CC(=O)N1C(Nc2ccccc2)CCN1c1ccccc1` (stereo unspecified), inactive: > 10 µM.
On to `O=C1CCCC2C(O)CCC[C@H]12` (stereo partly specified), for which the GI50 is inactive: > 100 µM.
Under `CCCCCCCCCCCCCCCCCCOCC(COCCOCC[N+]1(CCCCCC(=O)[O-])CCCC1)Oc1ncccn1` (stereo unspecified) stands inactive: 2.62 µM.
To `O=[N+]([O-])c1ccc(/C=N/C2CCCCC2)cc1` belongs inactive: > 100 µM; to `CN(C)Cc1cc(/N=N/c2ccccc2Cl)ccc1O`, inactive: 45.4 µM.
Under `CC1/C=C/C=C/CC/C=C/C=C/C=C/C=C/C(OC2OC(C)C(O)C(N)C2O)CC2OC(CC(O)C(O)CCC(O)CC(O)CC(O)CC(=O)OC(C)C(C)C1O)CC(O)C2C(=O)O` (stereo unspecified) stands inactive: 16.4 µM; under `O=C(Nc1ccccc1)OC1OC(COC(=O)c2ccccc2)C(OC(=O)c2ccccc2)C1OS(=O)(=O)c1ccc([N+](=O)[O-])cc1` (stereo unspecified), inactive: 93.5 µM.
Turning to `Cc1ccc(C[N+](C)(C)N)cc1C`, the GI50 is inactive: > 10 µM.
Consider `CSc1ccc(OCC2OC2O)cc1` (stereo unspecified), for which the GI50 was inactive: > 100 µM.
On to `CCc1nc2c(n1CC)C(=O)c1ccccc1C2=O`, for which the GI50 is inactive: 41.8 µM.
Turning to `O=C1C(Cl)=C(OCCCCl)C(=O)c2c(O)ccc(O)c21`, the GI50 is inactive: 1.72 µM.
For `Cn1c(-c2cccs2)cc(-c2ccsc2)c1-c1cccs1`, the GI50 is inactive: 87.7 µM.
To `O=C1CC(O)C=C1Nc1ccc(Cl)cc1` (stereo unspecified) belongs inactive: 62.7 µM.
To `CCOP(=O)(OCC)c1ccc(=O)[nH]c1-c1cccs1` belongs inactive: > 100 µM; to `O=[N+]([O-])c1ccc(OP(=O)(O)OCC2OC(CP(=O)(O)O)C(O)C2O)cc1` (stereo unspecified), inactive: > 100 µM; to `CCN(CC)CCN(C)CC(C)(C)C(=O)/C=C/c1ccccc1`, inactive: 13.4 µM.
Under `Cc1ccc(C(=O)N/N=C(\N=N\c2ccccc2C(=O)O)c2ccc(N(C)C)cc2)cc1` stands inactive: 51.6 µM; under `Nc1ccc(C(=O)N/C(=C\c2ccc3c(c2)OCO3)c2nc3c(O)nc(S)nc3[nH]2)cc1`, inactive: > 100 µM; under `S=C1NCCN1C(=S)NC1CCCCC1`, inactive: 67.1 µM.
With `COC(=O)C[C@H](COCc1ccccc1)NC(=O)C[C@H](COCc1ccccc1)NC(=O)OC(C)(C)C`, the GI50 was inactive: 25.5 µM.
Under `CCN1C(Cl)=NS(=O)(=O)c2ccccc21` stands inactive: > 100 µM.
To `COc1cc(OCc2nc3ccccc3n3cccc23)cc(OC)c1OC` belongs inactive: 42.1 µM; to `C=C(C)CC1=C(OCC)C(OC)(OCC)C1=O` (stereo unspecified), inactive: > 100 µM.
To `Cc1ncc([N+](=O)[O-])n1CCNS(=O)(=O)CCCn1ncnc1[N+](=O)[O-]` belongs inactive: > 100 µM; to `O=C(NCc1ccc(Cl)cc1)c1cc2sccc2nc1C(F)(F)F`, inactive: 30.6 µM.
Turning to `Cc1[nH]c(=O)nc(N/N=C/c2ccc(Cl)cc2)c1C(=O)Nc1ccc(Cl)cc1`, the GI50 is inactive: 42.7 µM.
Under `O=C(Nc1ccc(Cl)cc1)c1cc(S(=O)(=O)Nc2n[nH]c(Nc3ccc4ccccc4c3)n2)c(SSc2cc(Cl)c(C(=O)Nc3ccc(Cl)cc3)cc2S(=O)(=O)Nc2n[nH]c(Nc3ccc4ccccc4c3)n2)cc1Cl` stands inactive: 27.2 µM; under `O=C1O[C@@H](c2ccccc2)C[C@H]1CN1CCOCC1`, inactive: > 100 µM.
To `CCc1ccccc1NC(=O)C(=O)CC(=O)c1sc(Nc2ccccc2Cl)nc1C` belongs inactive: 39.8 µM.
To `CCN1CC2(C)CCC(OC)C34C5CC6CCC(O)(C5C(=O)O6)C(C(O)C23)C14` (stereo unspecified) belongs inactive: > 100 µM; to `CCOC(=O)C1=C(Nc2ccc(Cl)cc2Cl)OCC1=O`, inactive: > 100 µM.
On to `Cc1ccc(S(=O)(=O)N/N=C2\C=C[C@]3(CC2)C(=O)N(C)c2ccccc23)cc1`, for which the GI50 was inactive: 48.3 µM.
For the molecule `C=C(CO)[C@H]1CC/C(C)=C/CC/C(C)=C/C/C=C(\C)[C@H](O)C1`, the GI50 was inactive: > 100 µM.
Regarding `COC(=O)C(C#CCCCCC#CC(NC(=O)OCc1ccccc1)(C(=O)OC)C(F)(F)F)(NC(=O)OCc1ccccc1)C(F)(F)F` (stereo unspecified), the GI50 is inactive: > 100 µM.
Under `O=C(Nc1ccccc1-c1nn(CN2CCNCC2)c(=S)n(CN2CCNCC2)c1=O)C(F)(F)F` stands inactive: 22.1 µM; under `N#Cc1c2c(c(N)oc1=O)C(c1ccccc1)CC(=O)N2` (stereo unspecified), inactive: > 100 µM; under `C/C=C1\C(=O)OC2CCN3CCC(COC(=O)C(C)(O)C(C)C1O)C23` (stereo unspecified), inactive: > 100 µM.
In the case of `COC1=C(Cl)C(=O)c2c(O)ccc(O)c2C1=O`, the GI50 was inactive: 3.31 µM.
Under `O=[N+]([O-])c1ccc2[nH]nc(OCc3ccccc3Cl)c2c1` stands inactive: 43 µM; under `COc1ccc(CCNCc2cccc(OC)c2OC)cc1OC`, inactive: > 100 µM.
Under `Cc1ccc(C)c(NC(=O)C(=O)Nn2c(S)nc3ccccc3c2=O)c1` stands inactive: > 100 µM; under `CN(C)C(=O)c1ccc([N+](=O)[O-])cc1`, inactive: > 100 µM; under `O=c1[nH]nc(-c2ccccc2)n1/N=C/c1cccc([N+](=O)[O-])c1`, inactive: > 100 µM.
To `CC(C)(Cl)C(Br)CCC(C)(Cl)C(Br)CBr` (stereo unspecified) belongs inactive: 40.6 µM.
In the case of `COC1OC(Cn2c(C)nc(Br)c2Br)C(O)C(O)C1O` (stereo unspecified), the GI50 was inactive: > 100 µM.
To `O=C(CSc1nc(-c2ccccc2)c(-c2ccccc2)[nH]1)N/N=C/c1ccc([N+](=O)[O-])cc1` belongs inactive: 20.6 µM; to `COc1ccc(C2CC(c3ccc4ccccc4c3O)=NN2)cc1OC` (stereo unspecified), inactive: 56.1 µM; to `COc1cc2c(Cc3cc(OCc4ccccc4)ccc3N)nccc2c(OC)c1OC`, inactive: > 10 µM.
Under `COc1ccc(C(=O)O/N=C2/CCCCC2CN(C)C)cc1` (stereo unspecified) stands inactive: > 100 µM.
Under `N/C(=N\O)N/N=C/c1ccc(O)c(O)c1` stands inactive: > 100 µM; under `O=C(Nc1c(Cl)cc([N+](=O)[O-])cc1Cl)C(=O)C1C(=O)NC(=S)NC1=O`, inactive: > 100 µM; under `COc1ccc(-c2cc(-c3ccc(Nc4ccnc5cc(Cl)ccc45)cc3)[nH]c(=O)c2C#N)cc1`, inactive: > 100 µM.
As to `CC1=NN=C(N)N/C1=C\C(Sc1ccc(Cl)cc1)c1ccc(Cl)cc1Cl` (stereo unspecified), the GI50 was inactive: 16.9 µM.
Under `CCCCCCCC(=O)OC[n+]1cccc(-c2c(COC(=O)NC(C)C)c(COC(=O)NC(C)C)c3n2CCC3)c1` stands inactive: > 100 µM; under `O=C(N/C(=C\c1ccc(Oc2ccc(Cl)c(Cl)c2)cc1)c1nc2ccccc2[nH]1)c1ccccc1`, inactive: 20.2 µM.
To `COC(=O)C1C(O)C(C)C(O)OC1C(C)C(O)C(C)/C=C\C=C(/C)C(=O)Nc1c(C)c(OC(C)=O)c2c(c1O)C(=O)C(C)=C1OCOC(/C(C)=C/C(C)=O)=C12` (stereo unspecified) belongs inactive: 13 µM.
Under `COc1ccc2ccc([Se]c3ccc4ccc(OC)cc4c3)cc2c1` stands inactive: > 100 µM; under `COc1cc2c(oc(=O)c3c4occc4cc(OC)c23)c2cccc(O)c12`, inactive: > 100 µM.
With `Cc1ccccc1NC(=O)/C(C#N)=N\Nc1[nH]cnc1C(N)=O`, the GI50 was inactive: 79.3 µM.
To `NCCCN1CCN(CCCNc2ccc3nnn4c5ccccc5c(=O)c2c34)CC1` belongs inactive: 17.5 µM; to `CCOc1ccc(OCC(=O)O)c2c1CCCC2=O`, inactive: > 100 µM; to `N#CC(c1ccc(Cl)cc1)c1cccc(C(C#N)c2ccc(Cl)cc2)n1` (stereo unspecified), inactive: 51.2 µM.
To `COc1cc(C2c3[nH]c4ccccc4c3[C@@H](Nc3ccc(C#N)cc3)[C@H]3COC(=O)N23)cc(OC)c1O` (stereo partly specified) belongs inactive: 1.22 µM; to `CC1C[C@H](OC(N)=O)C(C)CC1=O` (stereo partly specified), inactive: > 100 µM.
Under `C=C(C)[C@@H]1CC[C@]2(C(=O)O)CC[C@]3(C)[C@H](CC[C@@H]4[C@@]5(C)CC(=O)C(C)(C)[C@@H]5CC[C@]43C)[C@@H]12` stands inactive: 8.47 µM.
